# Over roughly 33,000 sequences, “E-score (-0.5 to 0.5)” has its median near -0.043; the highest 2% begin near 0.37. This is one part of the list.
# Target: T1, Upc2 (UniProt Q12151)
# T1 sequence: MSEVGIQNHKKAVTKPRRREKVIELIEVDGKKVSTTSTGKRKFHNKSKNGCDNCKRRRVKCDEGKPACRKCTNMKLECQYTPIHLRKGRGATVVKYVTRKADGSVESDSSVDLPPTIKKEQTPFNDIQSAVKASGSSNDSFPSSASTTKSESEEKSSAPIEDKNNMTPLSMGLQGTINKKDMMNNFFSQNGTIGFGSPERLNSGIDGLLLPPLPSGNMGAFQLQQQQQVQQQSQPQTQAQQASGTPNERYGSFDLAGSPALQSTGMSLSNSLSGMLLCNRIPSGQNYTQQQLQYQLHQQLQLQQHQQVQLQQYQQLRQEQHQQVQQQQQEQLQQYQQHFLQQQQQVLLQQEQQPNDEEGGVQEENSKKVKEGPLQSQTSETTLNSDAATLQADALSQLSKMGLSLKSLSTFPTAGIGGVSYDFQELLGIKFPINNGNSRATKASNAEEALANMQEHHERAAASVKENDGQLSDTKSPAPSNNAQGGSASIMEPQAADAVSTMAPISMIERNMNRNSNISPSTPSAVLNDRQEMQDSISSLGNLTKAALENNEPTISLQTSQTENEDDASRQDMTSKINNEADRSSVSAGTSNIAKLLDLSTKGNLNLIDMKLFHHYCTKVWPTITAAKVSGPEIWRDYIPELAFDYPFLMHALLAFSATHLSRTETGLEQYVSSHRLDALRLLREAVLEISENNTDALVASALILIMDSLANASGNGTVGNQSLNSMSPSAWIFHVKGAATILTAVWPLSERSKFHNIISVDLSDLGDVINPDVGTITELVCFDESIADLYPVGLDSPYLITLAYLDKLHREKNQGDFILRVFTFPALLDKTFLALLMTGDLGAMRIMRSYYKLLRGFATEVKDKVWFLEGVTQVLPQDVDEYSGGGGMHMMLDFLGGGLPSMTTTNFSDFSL
# Experiment: PBM E-score (8-mer binding enrichment) (E-score (-0.5 to 0.5)); higher = stronger / more preferred TF binding; most listed sequences are background and not binding sites
# Conditions: protein concentration: 200 nM; construct: GST-full length
# Summary of the method: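 Detection of bound protein used fluorescent anti-GST, with scans normalised by masliner. The proteins were GST-tagged yeast transcription factors applied at about 100-200 nM to universal all-10-mer Agilent arrays made double-stranded by primer extension. Each ungapped eight-base word, pooled with its reverse complement, was scored with an E-score from the Universal PBM Analysis Suite.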
row,Sequence,PBM E-score
1,CAACTATC,0.0913
2,GCCACAGA,-0.149
3,GCGTCGGA,0.177
4,ATAAAAGA,0.204
5,GCTCTAAA,-0.0245
6,CCTATTCC,-0.219
7,AGATCGGG,-0.148
8,TCCTGAAA,-0.153
9,AGGTTATC,-0.112
10,CCGTCCAC,-0.0949
11,AGACTGTA,0.177
12,ATCACGTC,-0.0638
13,AATGAAAA,0.0243
14,AATGGTGG,-0.224
15,ACTGTCGG,-0.0529
16,CTACGATA,0.31
17,GTGGCGCA,-0.0284
18,GGGTGACA,-0.11
19,AGTCGGAA,-0.0651
20,TCCAGCAA,0.017
21,CGGTTTAG,0.161
22,AGCAGAAT,-0.0745
23,ACAAAGCC,-0.0509
24,AGGTTCGA,-0.0107
25,AATGATTG,-0.0849

row,Sequence,PBM E-score
1,TAAACACA,0.0639
2,AGGATCCG,0.0293
3,ATGTCAAC,0.108
4,CGCGCATC,0.0134
5,ATCTGGGA,-0.175
6,CAAGGGCG,-0.188
7,CTCCTTCC,-0.19
8,ACGCAGAT,0.197
9,ATGAATAA,-0.137
10,GACGGACC,-0.0885
11,AGGGAACT,-0.193
12,GCTATGGA,-0.141
13,AGCTAACT,-0.089
14,ACAGTATC,-0.0504
15,CAAGATTC,-0.161
16,GAATCAGA,-0.0159
17,AGATAGAC,0.038
18,ATATATGC,0.0988
19,ACGCTTGG,0.0331
20,CTGCTTGA,-0.208
21,ACGGATTA,0.171
22,AATGTGAA,0.0387
23,ACTGCGCT,-0.152
24,TCGTACCA,0.476
25,CTAAACCA,-0.0817

row,Sequence,PBM E-score
1,ATATCATC,-0.194
2,CCACCACG,-0.0532
3,GCCAAGCC,-0.168
4,AACCTCAC,-0.0292
5,CCAGTCTC,-0.142
6,ACTGGAGG,-0.267
7,GCTACCAA,-0.0323
8,GCCGCGCC,-0.201
9,AGATAGTG,0.0466
10,CCTAGAAG,-0.208
11,CTGAATTC,-0.199
12,ACTCTGGA,0.0882
13,AGGCTTCA,-0.158
14,ATGTTCCA,-0.0665
15,ATAGGGAC,-0.271
16,GCGTTGCA,-0.0573
17,AAAGCCTG,-0.249
18,GCCTCGAA,0.00343
19,TAGGCCTA,-0.0194
20,TAAGAACA,0.125
21,ACACAGTG,-0.192
22,GTTCTTTA,0.145
23,GATCAACC,-0.0371
24,ATTCATGC,-0.00825
25,GTTCGCTA,0.229

row,Sequence,PBM E-score
1,ACCCTGAA,-0.0634
2,AGCAACGA,0.263
3,GATACGCA,0.276
4,GGCAAGAA,-0.193
5,GGGGCACA,-0.238
6,GAGCAGGA,0.116
7,AGCCACCA,-0.294
8,ATATATAG,0.106
9,TCTAATAA,0.0272
10,ACGTATGC,0.228
11,ATTGAGGA,-0.13
12,AAGGGTGG,-0.0817
13,TCGCGACA,0.0843
14,CCAGGGGA,-0.202
15,CTTACCGA,0.203
16,AAGCATGA,-0.186
17,AATGATGA,-0.154
18,CTGGGATA,-0.289
19,AGAATTTA,-0.0894
20,TCGCAAAA,0.216
21,GGCGATAC,0.0891
22,TCGCTCAA,0.285
23,CGGGGGAC,-0.255
24,CAAAGTAG,-0.00091
25,AATCTCCA,-0.135

row,Sequence,PBM E-score
1,ACTATAGG,0.0267
2,ACTTCACC,-0.0347
3,AGCTTATA,0.0662
4,CCCTGAGC,-0.158
5,CATTGGAA,-0.156
6,ACCATCAG,-0.114
7,CTGGCCTC,-0.0796
8,CCTCTAAG,-0.19
9,GGGCGTAA,0.0283
10,GACTTCTA,-0.0663
11,AGGCAGAC,-0.162
12,ACTCGACT,-0.107
13,CCTGAACA,-0.0282
14,GAGCCCAC,0.00447
15,ACGGTGGA,0.227
16,CCTAAGTC,-0.21
17,AGTGAAAT,-0.163
18,ACCTGCTG,-0.231
19,AAGGAAGA,-0.151
20,AAACCCGA,0.248
21,AGGCATGC,-0.0459
22,CCCATGTA,-0.0824
23,CGCGAGAC,0.196
24,AGGAGTTC,-0.126
25,AACTTCAG,-0.0604

row,Sequence,PBM E-score
1,GGTTGAAA,-0.142
2,AAGTGTAC,0.163
3,GTGATTGA,-0.0994
4,CGCAAACC,0.205
5,CCATATTA,-0.0504
6,GAGATAGA,0.1
7,TCCATGGA,-0.204
8,GGCCTCTA,-0.0932
9,TAGTGTAA,0.0596
10,TATGCCCA,-0.189
11,AAATGCAC,-0.0128
12,ATCAAGTG,-0.242
13,CCTACCTC,-0.0799
14,GTCGGGAA,0.14
15,CCCCCGTA,0.279
16,CTACTGAA,-0.126
17,TACTTCAA,0.0135
18,CGGGCAAG,-0.0843
19,CCAAATTC,0.0452
20,ATTGTAGG,-0.0292
21,CCCTGGAG,-0.106
22,AGGGGACA,-0.227
23,CTATATTA,-0.0298
24,ATGACCCA,-0.222
25,CCCATAGC,-0.215

row,Sequence,PBM E-score
1,CGTTCATC,0.353
2,ATACGTAC,0.339
3,ATTACAGA,0.129
4,AAGAAGTG,0.00152
5,CAACGTAA,0.0631
6,ATAATTGC,-0.037
7,CGATAAGA,0.0792
8,CGTCTGAG,0.0949
9,GGTGGCAA,-0.185
10,AGAGTTGG,-0.241
11,CAAGGTAC,0.135
12,CATGTCTC,0.0139
13,GAAGGCCA,-0.213
14,AATAACAA,-0.0389
15,CACTACTG,-0.261
16,AAGAAAAG,-0.165
17,TCGTACAA,0.487
18,CCAAGCCA,-0.0835
19,ACTTTGTC,0.0592
20,CCAGCTCA,-0.202
21,GGGGCGTA,0.171
22,CACTACCG,-0.186
